Experimental data published in PubChem BioAssay AID2147 (National Center for Advancing Translational Sciences (NCATS), 2009).
Several values for one entry are separate records, joined by “and”; a condition that tells them apart may be missing. Identical values can stand only once. Screen size: about 230,000 compounds; about 3,600 (1.6%) were called active. Inconclusive means that the source gave no clear call. Such entries were picked first, then a sample of the others. Calls come from the whole dose curve; as a rule, active = well fitted inhibition curve with a large enough effect (not every such curve was filed as active); inconclusive = small, poorly fitted or top-dose-only effect, or another doubt; inactive = no such curve, though single readings can be large or run the other way. Potencies beside an inconclusive call are fits to weak or partial responses and may not hold up.
Note: nearly all actives have a fitted effect of over 50% in size.
Potency is the fitted concentration of half-maximal effect; tags give direction and shape of the fitted curve.

What follows are compounds tested against Lysine-specific demethylase 4E (Homo sapiens) (UniProt B2RXH2) (assay: qHTS Assay for Inhibitors of Human Jumonji Domain Containing 2E (JMJD2E)). Details: JMJD2E catalytic domain, FDH-coupled NADH fluorescence (FDH is formaldehyde dehydrogenase); series mostly up to 57.1 µM.
Sequence of UniProt B2RXH2 (B2RXH2 whole entry, looked up, the tested form may be a part): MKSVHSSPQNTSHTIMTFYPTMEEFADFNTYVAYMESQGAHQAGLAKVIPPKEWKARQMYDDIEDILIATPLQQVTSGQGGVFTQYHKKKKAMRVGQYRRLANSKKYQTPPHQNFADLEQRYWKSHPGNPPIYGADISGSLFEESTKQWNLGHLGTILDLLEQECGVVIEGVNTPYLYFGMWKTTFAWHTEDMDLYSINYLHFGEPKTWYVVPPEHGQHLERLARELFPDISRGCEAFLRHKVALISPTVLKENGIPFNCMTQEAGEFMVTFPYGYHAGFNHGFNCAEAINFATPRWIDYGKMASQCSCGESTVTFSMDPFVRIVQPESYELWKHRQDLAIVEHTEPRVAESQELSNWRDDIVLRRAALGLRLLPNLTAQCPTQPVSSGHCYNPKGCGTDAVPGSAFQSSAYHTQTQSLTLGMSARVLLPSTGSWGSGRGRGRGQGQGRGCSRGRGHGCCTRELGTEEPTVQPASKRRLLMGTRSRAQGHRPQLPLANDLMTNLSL
In the case of CCCCn1c(NS(=O)(=O)c2ccc(C)cc2)c(C(=O)OCC)c2nc3ccccc3nc21, the Potency is reported as inconclusive: 7.08 µM [inhibitor, partial curve].
In the case of CCC(C(=O)OCCOCCN(CC)CC)c1ccccc1 (centres undefined), the Potency is reported as inconclusive: 39.8 µM [inhibitor, single point].
With O=C(c1cccc(C(F)(F)F)c1)C1CCCN(Cc2ncc[nH]2)C1 (centres undefined) the Potency was “inactive”.
CCC(C)n1c(O)c(/C=N/NC(=O)c2ccncc2)c(=O)[nH]c1=S (centres undefined) was tested, and the Potency was inconclusive: 35.5 µM [inhibitor, single point].
For O=C(Cn1ncc2c3ccccc3n(Cc3ccc(F)cc3)c2c1=O)N1CCC2(CC1)OCCO2, the Potency was inconclusive: 31.6 µM [inhibitor, single point].
COc1cc(/C=C2/C(=O)NC(=O)N(c3ccccc3)C2=O)ccc1O was tested, and the Potency was “inactive”.
In the case of CC1N(P(=O)(c2ccccc2)c2ccccc2)CC(O)(c2ccccc2)CC12CC2 (centres undefined), the Potency is reported as “inactive”.
For Cc1ccc2c(c1)C1CN(C)CCC1N2C(=O)COc1ccc(S(=O)(=O)N2CCOCC2)cc1 (centres undefined), the Potency was “inactive”.
In the case of CCC(=NCc1ccc2c(c1)OCO2)c1c(O)n(C2CCCCC2)c(=O)[nH]c1=O, the Potency is reported as “inactive”.
COc1ccc2nc3oc(C(=O)N4CCC5(CC4)OCCO5)cc3cc2c1 was tested, and the Potency was inconclusive: 31.6 µM [inhibitor, partial curve].
In the case of CNC(=O)c1cccn(Cc2ccc(C(F)(F)F)cc2)c1=O, the Potency is reported as inconclusive: 31.6 µM [inhibitor, partial curve].
For CCCCc1ccc(C(=O)O)nc1, the Potency was active: 3.98 µM and active: 10 µM.
CN(CC1COc2ccccc2O1)c1nc(-c2cccnc2)nc2ccccc12 (centres undefined) was tested, and the Potency was inconclusive: 39.8 µM [inhibitor, single point].
In the case of CC(C)C(=O)Nc1ccc(N2CCN(C)CC2)c(F)c1, the Potency is reported as inconclusive: 12.6 µM [inhibitor, partial curve].
CCOc1ccc(-c2cc(C)[n+](CCO)c(-c3ccc(OCC)cc3)c2)cc1 was tested, and the Potency was inconclusive: 28.2 µM [inhibitor, partial curve].
In the case of CN1C(=O)N(C)C(=O)C2(Cc3ccccc3N3CCOCC32)C1=O (centres undefined), the Potency is reported as “inactive”.
In the case of C=CCn1c(O)c(C(C)=NCCc2c[nH]c3ccccc23)c(=O)[nH]c1=O, the Potency is reported as inconclusive: 39.8 µM [inhibitor, single point].
In the case of CC(=O)Nc1ccccc1OP1(=O)COc2ccccc2OC1, the Potency is reported as “inactive”.
COc1cc(CNCCc2ccc3c(c2)OCO3)cc(OC)c1OC was tested, and the Potency was inconclusive: 39.8 µM [inhibitor, single point].
COc1ccc2c(c1O)-c1c(OC)c(OC)cc3c1[C@@H](C2)N(C)CC3 was tested, and the Potency was inconclusive: 20 µM [inhibitor, partial curve].
CC[C@]1(O)C(=O)OCc2c1cc1n(c2=O)Cc2cc3ccccc3nc2-1 was tested, and the Potency was inconclusive: 3.55 µM [inhibitor, full curve].
With Oc1ccc2c3c1O[C@H]1c4[nH]c5c(c4C[C@@]4(O)[C@@H](C2)N(CC2CC2)CC[C@]314)C[C@@]1(O)[C@H]2Cc3ccc(O)c4c3[C@@]1(CCN2CC1CC1)[C@H]5O4 the Potency was inconclusive: 25.1 µM [inhibitor, single point].
In the case of CC(C)N1C(=O)c2ccccc2NS1(=O)=O, the Potency is reported as inconclusive: 35.5 µM [inhibitor, partial curve].
For CCCCCCn1c(=O)c(C(=O)Nc2nc(CC(=O)OCC)cs2)c(O)c2ccccc21, the Potency was inconclusive: 39.8 µM [inhibitor, single point].
For COC(=O)c1ccc2ccn(CC(=O)NC(C)C)c2c1, the Potency was inconclusive: 28.2 µM [inhibitor, partial curve].
CC(C)Cc1nc(N2CCNCC2)c(C#N)c2c1CCC2 was tested, and the Potency was inconclusive: 20 µM [inhibitor, partial curve].
For O=C1NC(=O)N(c2cccc(F)c2)C(=O)/C1=C/c1ccc(N2CCOCC2)cc1, the Potency was inconclusive: 31.6 µM [inhibitor, single point].
In the case of CCOC(=O)c1c(NC(=O)C(c2ccccc2)c2ccccc2)sc2c1C1CCN2CC1, the Potency is reported as inconclusive: 31.6 µM [inhibitor, single point].
CC[N+]12CCC(CC1)C(C(O)(c1ccccc1)c1ccccc1)C2 (centres undefined) was tested, and the Potency was “inactive”.
For NC(=O)C[N+]1(CC#CC(O)(c2ccccc2)c2ccccc2)CCCC1, the Potency was inconclusive: 14.1 µM [inhibitor, partial curve].
With Fc1cccc(CCNCc2ccccn2)c1 the Potency was inconclusive: 39.8 µM [inhibitor, single point].
In the case of C[N+](C)(C)CC#CCOC(=O)Nc1cccc(Cl)c1, the Potency is reported as “inactive”.
For O=C1NC(=S)N(C2CC2)C(=O)/C1=C/c1ccc2c(c1)CCN2CCCCl, the Potency was inconclusive: 35.5 µM [inhibitor, single point].
For Nc1c(C(=O)NCCN2CCOCC2)c2nc3ccccc3nc2n1Cc1ccco1, the Potency was inconclusive: 28.2 µM [inhibitor, partial curve].
In the case of O=C(N/N=C/c1c(O)n(CCc2ccccc2)c(=O)[nH]c1=O)c1ccncc1, the Potency is reported as active: 28.2 µM.
For Cc1ccc2nc(-c3ccncc3)cc(C(=O)N3CCC4(CC3)OCCO4)c2c1, the Potency was inconclusive: 25.1 µM [inhibitor, single point].
In the case of CC(=NCCCO)c1c(O)n(Cc2ccccc2)c(=O)[nH]c1=O, the Potency is reported as “inactive”.
For COc1ccc(P2(=O)Nc3ccccc3N2)cc1, the Potency was “inactive”.
CCOC(=O)Cc1c(C)c2c(C)[nH]nc2oc1=O was tested, and the Potency was inconclusive: 28.2 µM [inhibitor, partial curve].
For O=c1[nH]c(=S)n(C2CC2)c(O)c1/C=N/Nc1ccccc1, the Potency was inconclusive: 35.5 µM [inhibitor, single point].
With Oc1cccc2cccnc12 the Potency was active: 11.2 µM.
COc1ccc2c(c1O)-c1cccc3c1C(C2)N(C)CC3 (centres undefined) was tested, and the Potency was inconclusive: 31.6 µM [inhibitor, partial curve].
With CN1C(=O)NC(=O)/C(=C/c2ccc([N+](=O)[O-])s2)C1=O the Potency was active: 22.4 µM.
In the case of CC(=O)Oc1ccc(/C=C/c2cc(OC(C)=O)cc(OC(C)=O)c2)cc1, the Potency is reported as inconclusive: 35.5 µM [inhibitor, single point].
N#C/C(=C\c1ccc(O)cc1)C(=O)O was tested, and the Potency was inconclusive: 35.5 µM [inhibitor, single point].
CCOC(=O)C1=C(C)OC(N)=C(C(=O)OCC)C12C(=O)Nc1ccc(Br)cc12 (centres undefined) was tested, and the Potency was “inactive”.
For CC1COC2N=C(N[N+](=O)[O-])NC2O1 (centres undefined), the Potency was “inactive”.
In the case of CN1Cc2ccccc2[C@@H]2c3cccc4[nH]cc(c34)C[C@H]21, the Potency is reported as active: 10 µM.
CC(C)n1c(O)c(C2c3cc(Cl)ccc3Oc3[nH]c(=O)n(C(C)C)c(=O)c32)c(=O)[nH]c1=O (centres undefined) was tested, and the Potency was inconclusive: 39.8 µM [inhibitor, single point].
With COc1ccc(CN2C(=O)NC(=O)/C(=C\c3cccc(OC)c3OC)C2=O)cc1 the Potency was “inactive”.
With CNCCc1c[nH]c2ccccc12 the Potency was inconclusive: 39.8 µM [inhibitor, single point].
CCOC(=O)C(O)(c1ccc(NC(=S)NC(=O)c2ccc(Cl)cc2Cl)cc1)C(F)(F)F (centres undefined) was tested, and the Potency was “inactive”.
In the case of O=C1NC(=O)C(=Cc2cc(Cl)ccc2OCc2ccc(C(=O)O)cc2)C(=O)N1, the Potency is reported as inconclusive: 22.4 µM [inhibitor, partial curve].
In the case of Cc1cc(C=C2C(=O)NC(=O)NC2=O)c(C)n1-c1ccncc1, the Potency is reported as inconclusive: 39.8 µM [inhibitor, single point].
For O=C1OC(=O)C2C3CCC(O3)C12 (centres undefined), the Potency was active: 22.4 µM.
With Cc1ccsc1/C=N/NC(=O)Cc1cc(=O)[nH][nH]1 the Potency was inconclusive: 1.12 µM [inhibitor, full curve].
O=C1NC(=O)N(CCC2=CCCCC2)C(=O)/C1=C/c1ccc(O)cc1 was tested, and the Potency was inconclusive: 25.1 µM [inhibitor, single point].
With O=C(NC(C(Cl)Cl)N1CCOCC1)c1ccccc1 (centres undefined) the Potency was inconclusive: 28.2 µM [inhibitor, single point].
With CN(C)C1C(=O)C(C(N)=O)=C(O)[C@@]2(O)C(=O)C3=C(O)c4c(O)cccc4[C@@](C)(O)C3C[C@@H]12 (some centres undefined) the Potency was active: 10 µM.
For COCCCn1c(N)c(C(=O)Nc2ccccc2)c2nc3ccccc3nc21, the Potency was inconclusive: 31.6 µM [inhibitor, partial curve].
CC[n+]1c(SC)ccc2cc(OC)ccc21 was tested, and the Potency was inconclusive: 7.08 µM [inhibitor, single point].
In the case of COC(=O)C1=Nc2ccccc2/C1=C\c1c(O)n(-c2ccc(OC)cc2)c(=O)[nH]c1=O, the Potency is reported as active: 17.8 µM.
With O=C(O)CCn1cc(C=C2C(=O)NC(=O)NC2=O)c(-c2cc3ccccc3oc2=O)n1 the Potency was inconclusive: 12.6 µM [inhibitor, partial curve].
With CN1CCC2=C[C@@H](O)[C@@H]3OC(=O)c4cc5c(cc4C3C21)OCO5 (some centres undefined) the Potency was inconclusive: 25.1 µM [inhibitor, single point].
In the case of C[N+]1=Cc2cc3c(cc2CC1)OCO3, the Potency is reported as inconclusive: 15.8 µM [inhibitor, full curve].
With COc1cccc(-n2cnc3scc(-c4cccs4)c3c2=O)c1 the Potency was inconclusive: 5.01 µM [inhibitor, full curve].
Cc1c(N=Nc2c(O)n(-c3ccc(Br)cc3)c(=O)[nH]c2=O)c(=O)n(-c2ccccc2)n1C was tested, and the Potency was inconclusive: 28.2 µM [inhibitor, single point].
In the case of Cc1cccc(CSc2nc3c(cc2C#N)CN(C)CC3)c1, the Potency is reported as inconclusive: 25.1 µM [inhibitor, partial curve].
In the case of CCCCCCn1c(O)c(C=Nc2c(C)n(C)n(-c3ccccc3)c2=O)c(=O)[nH]c1=O, the Potency is reported as inconclusive: 35.5 µM [inhibitor, single point].
